The list shows a part of the results. These are noisy estimates, calculated here from bound and input reads.
Biological target: T1, Pho4 (S. cerevisiae) (UniProt P07270)
T1 sequence: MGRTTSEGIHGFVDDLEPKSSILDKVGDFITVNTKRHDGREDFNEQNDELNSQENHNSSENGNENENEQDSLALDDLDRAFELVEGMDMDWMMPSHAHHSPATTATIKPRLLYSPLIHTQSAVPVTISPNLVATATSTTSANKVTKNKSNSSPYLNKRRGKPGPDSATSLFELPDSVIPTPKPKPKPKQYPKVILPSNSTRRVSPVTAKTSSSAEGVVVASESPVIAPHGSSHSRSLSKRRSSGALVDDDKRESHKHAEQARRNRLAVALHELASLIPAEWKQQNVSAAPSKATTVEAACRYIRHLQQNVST
Experiment: relative binding free energy (BET-seq); higher = weaker binding
Details: reference: library average

Sequence | relative binding free energy [kcal/mol]
TGCGGCACGTGAAAGT | 0.24
GTGAACACGTGGGGAC | -0.07
ACGTTCACGTGCGGGG | 0.08
ACTTTCACGTGAGTGT | 0.21
ATTTCCACGTGTGATG | 0.04
GGTGCCACGTGGTGGT | -0.14
ATTAGCACGTGGTTCT | -0.13
GGTTGCACGTGTGTGG | 0.15
AGTTTCACGTGTGAAT | 0.32
GTATCCACGTGGTGTT | -0.07
GTGTGCACGTGGGGTC | -0.13
GAATACACGTGTAGTT | 0.14
GGTTTCACGTGTAGGG | 0.2
TCTCTCACGTGGTTTA | 0.3
ATCTGCACGTGAGGGG | 0.24
TGAGTCACGTGAGGAA | 0.1
GTCTGCACGTGTTGCG | 0.12
GGATACACGTGTCGTG | 0.07
ACGGTCACGTGGTGTT | 0.14
AATTTCACGTGAGGGC | 0.29
TAAGGCACGTGTCATG | -0.03
ATAGACACGTGCTGTT | -0.08
ACGGTCACGTGGCTGG | -0.01
AAGCTCACGTGTGGTT | 0.17
TTATACACGTGTAGAT | 0.15

Sequence | relative binding free energy [kcal/mol]
AGGCGCACGTGGACGG | -0.15
TAGGACACGTGGTAAT | -0.07
AAACTCACGTGGGTTT | 0.08
GAACGCACGTGGGTTT | 0.01
AGTGGCACGTGTGCGC | -0.1
ATGCTCACGTGATTTG | 0.32
TTGGTCACGTGTAGTG | 0.25
CTGGTCACGTGCTTAT | 0.11
GGAGCCACGTGGGAGT | -0.07
AGAGGCACGTGGTGAA | -0.2
TTTTTCACGTGTAATG | 0.25
TGTTGCACGTGCGCAT | -0.24
AGTGTCACGTGAATGT | 0.23
CGGGGCACGTGTTTGA | -0.15
GTGTTCACGTGGTCAT | 0.18
TTAAGCACGTGCGGCT | -0.14
TGTGACACGTGTACGT | -0.01
TTAAACACGTGGTTTT | -0.19
CATGGCACGTGGGAAG | -0.17
ATCTTCACGTGGTAGT | 0.21
TGTTTCACGTGCTTTT | 0.29
TCCGTCACGTGTATGT | 0.11
GCTTTCACGTGGCGGA | 0.37
AGTTGCACGTGCGCGG | -0.1
ATTCGCACGTGAGTTT | 0.13

Sequence | relative binding free energy [kcal/mol]
CTATTCACGTGAGTTG | 0.56
AGTGGCACGTGGCTTC | -0.15
GGTGACACGTGGGGAA | 0.04
CCCGTCACGTGGGGGG | -0.14
TGTTTCACGTGGCATT | 0.17
TCGGTCACGTGTGAGG | 0.09
GGTATCACGTGGATAT | 0.27
TCGTGCACGTGATATT | 0.03
TTATACACGTGTAGGC | 0.19
GTTTACACGTGTCTGT | 0.13
AAATTCACGTGGCGGG | 0.27
TTTGGCACGTGAGTGA | 0.06
GGTAGCACGTGCAGGC | -0.07
GAGAGCACGTGGGTCG | -0.21
TTAACCACGTGTATGT | -0.1
ATGGGCACGTGATCGC | 0
AGGGTCACGTGGACGT | 0.16
ATGATCACGTGATATG | 0.28
GAATGCACGTGCGGGT | 0.09
TTTCCCACGTGTGTGG | -0.11
GTTTCCACGTGAGAGG | 0.25
GTTGTCACGTGGAAGG | 0.17
AAGTGCACGTGTTTTG | 0.01
GGAGGCACGTGGAGGT | 0.03
TTACACACGTGTGGTG | 0

Sequence | relative binding free energy [kcal/mol]
TCGATCACGTGGTGCT | 0.06
GATAGCACGTGGGGAT | -0.06
AAGGTCACGTGGGGGG | -0.08
AGAAGCACGTGGGCTG | -0.19
TGTGCCACGTGGGGAA | -0.29
GGTTACACGTGGTGCT | 0.08
ATGTTCACGTGTAATA | 0.24
GGCCACACGTGGTGGT | -0.01
CAATTCACGTGATGGG | 0.36
ATTATCACGTGGTAAT | 0.13
GTTGTCACGTGCTTTA | 0.13
AGGACCACGTGGTGTG | -0.16
AGTGACACGTGGTTCT | -0.04
TCGTGCACGTGTTGTA | -0.13
GTGATCACGTGTGCTT | 0.07
GTGATCACGTGAGGCA | 0.24
CGTGGCACGTGAGCTG | 0.14
TAAATCACGTGTGTTG | 0.2
GTGGCCACGTGAGGCG | 0.12
TTAGGCACGTGCCTTT | -0.05
GCTTTCACGTGTTGCG | 0.4
ATGTACACGTGCTGAG | 0.07
TGAATCACGTGGTGTT | 0.12
GGGGTCACGTGCGTGG | 0.1
TGTAGCACGTGGAGCA | -0.1

Sequence | relative binding free energy [kcal/mol]
GACTTCACGTGTATTG | 0.22
AGAGCCACGTGGTGTG | -0.29
ATTTGCACGTGATTTA | 0.12
GTATACACGTGGCAGG | -0.03
AGTGTCACGTGCGTGT | -0.07
GGAGTCACGTGTATGT | 0.18
TGGTTCACGTGTTTCA | 0.15
TCTTACACGTGATGGC | 0.45
GTGTACACGTGGCGTT | -0.08
GTTAACACGTGGGTAA | -0.05
TATATCACGTGCTTGT | -0.15
TGATTCACGTGCTTGA | 0.24
GGTCGCACGTGGGTGT | -0.14
CGTGGCACGTGACGGT | -0.05
CGTGACACGTGATATG | 0.05
GAATTCACGTGGATGG | 0.37
GTGGCCACGTGCGGTG | -0.04
AAAGTCACGTGGGAAG | 0.08
TTTTTCACGTGGGGTC | 0.28
GTATGCACGTGCTGTT | -0.05
TGATTCACGTGGGCTT | 0.19
GGTGTCACGTGTTCAG | 0.08
TTTGGCACGTGGGTGT | -0.2
TCGGGCACGTGTGGCG | -0.12
AAAATCACGTGTTGTA | 0.06

Sequence | relative binding free energy [kcal/mol]
GTAAGCACGTGGCTCG | 0.07
TGGCACACGTGGCGGG | 0.03
GAATACACGTGTTTGG | 0.12
GTGTTCACGTGTATCG | 0.38
AGGTACACGTGACAGT | 0.18
CTTGGCACGTGCGGGA | -0.2
AATATCACGTGCAGGG | 0.16
TTGAGCACGTGTCCTG | -0.07
AGTGTCACGTGGGTTC | 0.06
TCGAACACGTGGGTAG | 0.03
ATAATCACGTGGGAAT | 0.12
GCTTTCACGTGCTGGT | 0.22
TGGAACACGTGTGGGG | 0.22
GTGGGCACGTGTGCGG | -0.11
ATGGACACGTGTGTCG | 0.14
ACTTACACGTGGGTAT | 0.06
GGCGTCACGTGTTGCT | 0
AAGATCACGTGGTGGT | 0.09
GTCTTCACGTGTGTGA | 0.32
TAATGCACGTGGTAGA | 0.01
GCTCACACGTGGTGGT | 0.11
